Test results taken from PubChem BioAssay AID2675 (National Center for Advancing Translational Sciences (NCATS), 2010).
Screen size: about 280,000 compounds; about 100 (0.036%) were called active. The inconclusive results got no clear call from the source; some entries with a clear call stand among them for comparison. The call rests on the fitted dose curve; in most records, active means well fitted inhibition curve with a large enough effect in the signal ratio, with a control signal flat (not every such curve was filed as active); inconclusive means small, poorly fitted or top-dose-only effect, or effect the other way, or a change in a side signal; inactive means no such curve, though single readings can be large or run the other way; the % refers to the signal ratio. Potencies of inconclusive entries are doubtful fits and often do not repeat. “Side channel” marks fits to a control or component signal instead of the main read-out.
On the % scale 0 is the no-effect control and ±100 the full control effect; potency means the concentration at half of the fitted maximal effect; tags describe the fitted curve by direction and shape or compound fluorescence and quenching.

The molecules below were run against Muscleblind-like protein 1 (Homo sapiens) (UniProt Q9NR56) (assay: qHTS Assay for Inhibitors of MBNL1-poly(CUG) RNA binding). Conditions: TR-FRET MBNL1-His/biotin-(CUG)12 binding, 665/545 ratio; activity change, negative = inhibition: at 57.5 µM (top of the series).
Chain of UniProt Q9NR56 (Q9NR56 whole entry, looked up): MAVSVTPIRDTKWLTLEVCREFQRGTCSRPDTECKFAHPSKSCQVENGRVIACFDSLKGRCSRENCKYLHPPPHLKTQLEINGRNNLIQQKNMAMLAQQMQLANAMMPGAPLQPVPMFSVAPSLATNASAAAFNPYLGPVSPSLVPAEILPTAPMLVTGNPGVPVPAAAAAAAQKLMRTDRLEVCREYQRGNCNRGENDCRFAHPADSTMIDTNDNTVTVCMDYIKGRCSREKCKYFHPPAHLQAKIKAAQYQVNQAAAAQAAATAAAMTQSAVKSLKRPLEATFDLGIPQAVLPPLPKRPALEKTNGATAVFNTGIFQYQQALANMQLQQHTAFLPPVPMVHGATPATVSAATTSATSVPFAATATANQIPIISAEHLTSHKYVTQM
How it was run: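 Compounds (final 92 nM to 58 uM) are added to His-tagged MBNL1 and biotin-(CUG)12, then terbium anti-His antibody and streptavidin-XL665 (5 nM final). After 60 min at room temperature, the 665/545 nm ratio is read.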
`[O-][n+]1cccc2c(Br)cc(Br)c(O)c21` was tested, and the “activity change, negative = inhibition” value was inactive: 17%.
In the case of `COc1ccc(/C=N/NC(=O)c2ccncc2)cc1OC`, the Potency is reported as inconclusive: 28.2 µM [quencher, side channel, single point].
`CC(=O)Nc1ccc(S(=O)(=O)N2CCN(c3cc(C)ccc3C)CC2)cc1` was tested, and the “activity change, negative = inhibition” value was inactive: 0.223%.
For `Cc1ccc(C(=O)NC(=S)Nc2ccc(-c3ccc(CO)o3)cc2)cc1`, the “activity change, negative = inhibition” value was inactive: 44.1%.
`O=C(CN1CCCCCC1)Nc1ccc([N+](=O)[O-])cc1Br` was tested, and the Potency was inconclusive: 14.1 µM [quencher, partial curve].
For `COc1cccc(C2c3[nH]c4ccccc4c3CCN2Cc2cnn(C)c2)c1` (configuration not stated), the “activity change, negative = inhibition” value was inactive: 8.11%.
In the case of `N/C(=N\OC(=O)CCC1CCCC1)c1cccc([N+](=O)[O-])c1`, the Potency is reported as inconclusive: 5.01 µM [quencher, side channel, partial curve].
In the case of `COc1ccc(C(=O)NNC2=Nc3cccc4cccc2c34)cc1`, the “activity change, negative = inhibition” value is reported as inactive: 1.28%.
For `COC(=O)c1cc(NC(=O)c2c(Cl)cnn2C)cc(C(=O)OC)c1`, the Potency was inconclusive: 7.08 µM [quencher, side channel, single point].
For `c1ccc(CCNc2ccccc2)cc1`, the “activity change, negative = inhibition” value was inactive: 3.9%.
With `CC1(C)CC(=O)c2sc(NS(=O)(=O)c3ccc(F)cc3)nc2C1` the “activity change, negative = inhibition” value was inactive: 6.32%.
For `Cc1ccc([N+](=O)[O-])cc1S(=O)(=O)Nc1ccc(C(=O)N(C)C)cc1`, the Potency was inconclusive: 20 µM [quencher, side channel, partial curve].
For `COC(=O)c1cnc(Nc2cccc(C(F)(F)F)c2)c([N+](=O)[O-])c1`, the Potency was inconclusive: 3.16 µM [quencher, full curve, poor fit].
For `O=C1OC(c2ccc(O)cc2)(c2ccc(O)cc2)c2ccccc21`, the Potency was inconclusive: 126 µM [inhibitor, partial curve, poor fit].
For `COc1cc(C(=O)O/N=C(\N)c2ccc([N+](=O)[O-])cc2)cc(OC)c1OC`, the Potency was inconclusive: 7.94 µM [quencher, side channel, partial curve].
For `NC(=O)CN(N=Nc1cccc([N+](=O)[O-])c1)c1cccc([N+](=O)[O-])c1`, the Potency was inconclusive: 12.6 µM [quencher, side channel, partial curve].
For `O=C(N/C(=C\c1ccc(Br)cc1)C(=O)N1CCOCC1)c1ccc([N+](=O)[O-])cc1`, the Potency was inconclusive: 12.6 µM [quencher, side channel, partial curve].
In the case of `O=C(/C=C/c1ccco1)Nc1cc(Cl)ccc1C(=O)O`, the Potency is reported as inconclusive: 3.16 µM [quencher, side channel, full curve].
In the case of `O=c1c([N+](=O)[O-])c(NC2CCCCC2)c2ccccc2n1-c1ccccc1`, the Potency is reported as inconclusive: 5.01 µM [quencher, side channel, single point].
With `CC(C)(C)NC(=S)N/N=C\c1ccc(-c2ccc([N+](=O)[O-])cc2)o1` the Potency was inconclusive: 14.1 µM [quencher, partial curve].
With `O=[N+]([O-])c1cccc(S(=O)(=O)N2CCCCC2)c1` the Potency was inconclusive: 28.2 µM [quencher, partial curve].
For `O=C(NC1CCN(Cc2ccccc2)CC1)c1ccccc1`, the “activity change, negative = inhibition” value was inactive: -7.75%.
In the case of `O=C1c2ccccc2C(=O)c2[nH]c(=O)[nH]c21`, the Potency is reported as inconclusive: 8.91 µM [quencher, side channel, partial curve].
For `CC#CC#Cc1cccc(=O)o1`, the Potency was inconclusive: 14.1 µM [quencher, partial curve].
`CCn1nc(NC(=O)c2cccs2)c2cc3ccccc3nc21` was tested, and the Potency was inconclusive: 25.1 µM [quencher, side channel, partial curve].
With `Cc1ccc2c(c1)c(N=NC(N)=O)c(O)n2C` the Potency was inconclusive: 15.8 µM [quencher, side channel, partial curve].
In the case of `Cc1ccc2c(c1)C(O)(CC(=O)c1cccnc1)C(=O)N2` (configuration not stated), the Potency is reported as inconclusive: 11.2 µM [quencher, side channel, partial curve].
For `O=C(CN1C(=O)c2cccc3cccc1c23)NCc1ccccn1`, the Potency was inconclusive: 15.8 µM [quencher, side channel, partial curve].
`CC(O)c1nc2cc([N+](=O)[O-])ccc2n1Cc1ccccc1` (configuration not stated) was tested, and the Potency was inconclusive: 14.1 µM [quencher, side channel, partial curve].
In the case of `CCc1ccc[n+](-c2[nH]c(=O)sc2/C=N/NC([S-])=Nc2ccccc2)c1`, the Potency is reported as inconclusive: 20 µM [quencher, partial curve].
In the case of `CCn1c2ccc(F)cc2c2nnc(SCCN3CCOCC3)nc21`, the Potency is reported as inconclusive: 12.6 µM [quencher, side channel, partial curve].
`COc1ccc(C(=O)CC(=O)Nc2ccc([N+](=O)[O-])cc2)cc1` was tested, and the Potency was inconclusive: 22.4 µM [quencher, side channel, partial curve].
With `CC(=O)c1ccc(Sc2ccccc2)c([N+](=O)[O-])c1` the Potency was inconclusive: 7.94 µM [quencher, side channel, partial curve].
In the case of `NC(=S)c1cc2cc(Br)ccc2oc1=O`, the Potency is reported as inconclusive: 3.55 µM [quencher, side channel, full curve].
With `COc1ccccc1CCNC(=O)CSc1nnc2ccc(-c3ccncc3)nn12` the Potency was inconclusive: 15.8 µM [quencher, side channel, partial curve].
For `COCCCNC(=O)/C(C#N)=C/c1c(N2CCN(C)CC2)nc2ccccn2c1=O`, the Potency was inconclusive: 15.8 µM [quencher, side channel, partial curve].
With `O=C(Cn1c(=O)[nH]c2ccsc2c1=O)N1CCN(c2ccc(F)cc2)CC1` the Potency was inconclusive: 4.47 µM [quencher, side channel, single point].
With `CCOC(=O)C1=C(C)N(CCCCCC(=O)O)C(=O)NC1c1ccccc1Cl` (configuration not stated) the Potency was inconclusive: 126 µM [inhibitor, partial curve, poor fit].
With `COc1ccc(-c2cc3c(=O)n(CC(=O)NCCCN4CCC(Cc5ccccc5)CC4)ncn3n2)cc1` the “activity change, negative = inhibition” value was inactive: -3.18%.
`[O-]/C(=C(\C(=S)NCc1ccco1)[n+]1ccccc1)c1ccccc1Br` was tested, and the “activity change, negative = inhibition” value was inactive: 18.9%.
In the case of `Cc1cnc(C(=O)Nc2ccccc2-c2ccc(C)o2)cn1`, the Potency is reported as inconclusive: 35.5 µM [quencher, side channel, single point].
In the case of `Cc1ccc(/C=C(\C#N)C(=O)Nc2ccccn2)o1`, the Potency is reported as inconclusive: 15.8 µM [quencher, partial curve].
With `Cc1nn2c([nH]c(=O)c3ccccc32)c1C=O` the “activity change, negative = inhibition” value was inactive: -5.5%.
`CC1CCCC(NC(=O)C2CCN(S(=O)(=O)N3CCCCCC3)CC2)C1C` (configuration not stated) was tested, and the Potency was inconclusive: 15.8 µM [quencher, side channel, partial curve].
In the case of `CC1(C)CC(=O)/C(=C\c2cccc([N+](=O)[O-])c2)C(C)(C)N1`, the Potency is reported as inconclusive: 25.1 µM [quencher, side channel, single point].
`Cc1cc(C)c(C#N)c(SCc2ccccc2)n1` was tested, and the “activity change, negative = inhibition” value was inactive: -5%.
In the case of `Cc1ccc(C)c(N2C(=O)CC(Cc3ccccc3)C2=O)c1` (configuration not stated), the “activity change, negative = inhibition” value is reported as inactive: -8.84%.
In the case of `CCCNC(=O)c1ccc2c(=O)c(O)c(-c3cccc(Br)c3)[nH]c2c1`, the Potency is reported as inconclusive: 31.6 µM [quencher, side channel, single point].
In the case of `Cc1cc2cc(C)c(NCCNC(=O)c3cccs3)nc2cc1C`, the Potency is reported as inconclusive: 35.5 µM [fluorescent, side channel, single point].
With `COc1ccc(NC(=O)c2ccc(Br)o2)c([N+](=O)[O-])c1` the Potency was inconclusive: 3.16 µM [quencher, side channel, full curve, poor fit].
With `COc1ccc(C(=O)NNC(=O)c2cc3cccc(OC)c3oc2=O)cc1` the Potency was inconclusive: 3.98 µM [quencher, side channel, full curve].
`Clc1ccc(-c2nnc3cccc(Cl)n23)c(Cl)c1` was tested, and the Potency was inconclusive: 12.6 µM [quencher, side channel, partial curve].
`CCN1CCc2c(sc(NC(=O)c3ccc(C(=O)c4ccccc4)cc3)c2C(N)=O)C1` was tested, and the Potency was inconclusive: 39.8 µM [quencher, single point].
With `O=C(N/N=C/C(Br)=C/c1ccccc1)c1cccnc1` the Potency was inconclusive: 20 µM [quencher, side channel, partial curve].
For `Cc1ccc(C(=O)OCc2nnc(-c3ccccc3)o2)o1`, the Potency was inconclusive: 8.91 µM [quencher, side channel, single point].
`C/C(=N\OCC(=O)Nn1c(C)nc2ccccc2c1=O)c1cccs1` was tested, and the Potency was inconclusive: 6.31 µM [quencher, side channel, single point].
With `Nc1c(C(=O)c2cccs2)oc2ccccc12` the Potency was inconclusive: 25.1 µM [quencher, side channel, single point].
For `C[C@@H]1NC(=O)[C@H](CCCN=C(N)N)NC(=O)c2cc([N+](=O)[O-])cc(I)c2OCC[C@@H](C(N)=O)NC1=O`, the Potency was inconclusive: 25.1 µM [quencher, partial curve].
In the case of `CC(C)(CC(=O)O)CC(=O)Nc1ccccc1Oc1ccccc1`, the Potency is reported as inconclusive: 63.1 µM [inhibitor, single point].
`CCCCCC(=O)Nc1ccc(-c2cn3cccnc3n2)cc1` was tested, and the Potency was inconclusive: 25.1 µM [quencher, side channel, partial curve].
In the case of `CCOC(=O)c1cc(-c2ccncc2)nc2c1c(C)nn2C`, the Potency is reported as inconclusive: 12.6 µM [quencher, side channel, partial curve].
`CCN(CC)CCN1C(=O)C(=O)/C(=C(/O)c2ccc(S(=O)(=O)N3CCOCC3)cc2)C1c1ccccc1` (configuration not stated) was tested, and the Potency was inconclusive: 31.6 µM [quencher, side channel, single point].
